This passage reports binding results from publication PMC6894885.

Sequences of proteins named here, by UniProt entry; tags and fusion partners are left off. A change or cut given only in a name is not applied to a line headed by its entry. A line that says so, or that is headed by a name, gives the form on record, which may keep a tag or linker. Residues count along the entry.
UniProt F5HCV3: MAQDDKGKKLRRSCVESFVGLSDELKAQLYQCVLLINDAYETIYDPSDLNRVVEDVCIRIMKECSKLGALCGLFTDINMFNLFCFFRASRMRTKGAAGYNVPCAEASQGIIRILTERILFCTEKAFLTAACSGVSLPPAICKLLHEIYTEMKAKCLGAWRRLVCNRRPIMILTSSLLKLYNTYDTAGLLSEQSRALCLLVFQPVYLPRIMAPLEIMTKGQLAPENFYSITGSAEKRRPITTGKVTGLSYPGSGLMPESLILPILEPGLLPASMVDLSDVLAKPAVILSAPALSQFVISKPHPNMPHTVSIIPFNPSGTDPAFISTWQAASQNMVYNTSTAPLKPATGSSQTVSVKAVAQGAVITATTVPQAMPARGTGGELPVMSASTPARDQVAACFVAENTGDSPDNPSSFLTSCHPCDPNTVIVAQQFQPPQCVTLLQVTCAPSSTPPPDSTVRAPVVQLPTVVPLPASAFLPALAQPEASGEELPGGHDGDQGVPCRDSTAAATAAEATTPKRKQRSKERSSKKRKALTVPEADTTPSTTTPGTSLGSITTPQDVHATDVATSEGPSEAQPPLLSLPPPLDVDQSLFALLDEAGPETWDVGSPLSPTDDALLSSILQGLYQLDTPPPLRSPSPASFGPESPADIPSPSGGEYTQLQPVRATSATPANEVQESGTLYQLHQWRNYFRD
Flag-tagged RTA truncation C544-691 (Kaposi's sarcoma-associated herpesvirus (KSHV)): residues 544-691 of F5HCV3
UniProt Q15596: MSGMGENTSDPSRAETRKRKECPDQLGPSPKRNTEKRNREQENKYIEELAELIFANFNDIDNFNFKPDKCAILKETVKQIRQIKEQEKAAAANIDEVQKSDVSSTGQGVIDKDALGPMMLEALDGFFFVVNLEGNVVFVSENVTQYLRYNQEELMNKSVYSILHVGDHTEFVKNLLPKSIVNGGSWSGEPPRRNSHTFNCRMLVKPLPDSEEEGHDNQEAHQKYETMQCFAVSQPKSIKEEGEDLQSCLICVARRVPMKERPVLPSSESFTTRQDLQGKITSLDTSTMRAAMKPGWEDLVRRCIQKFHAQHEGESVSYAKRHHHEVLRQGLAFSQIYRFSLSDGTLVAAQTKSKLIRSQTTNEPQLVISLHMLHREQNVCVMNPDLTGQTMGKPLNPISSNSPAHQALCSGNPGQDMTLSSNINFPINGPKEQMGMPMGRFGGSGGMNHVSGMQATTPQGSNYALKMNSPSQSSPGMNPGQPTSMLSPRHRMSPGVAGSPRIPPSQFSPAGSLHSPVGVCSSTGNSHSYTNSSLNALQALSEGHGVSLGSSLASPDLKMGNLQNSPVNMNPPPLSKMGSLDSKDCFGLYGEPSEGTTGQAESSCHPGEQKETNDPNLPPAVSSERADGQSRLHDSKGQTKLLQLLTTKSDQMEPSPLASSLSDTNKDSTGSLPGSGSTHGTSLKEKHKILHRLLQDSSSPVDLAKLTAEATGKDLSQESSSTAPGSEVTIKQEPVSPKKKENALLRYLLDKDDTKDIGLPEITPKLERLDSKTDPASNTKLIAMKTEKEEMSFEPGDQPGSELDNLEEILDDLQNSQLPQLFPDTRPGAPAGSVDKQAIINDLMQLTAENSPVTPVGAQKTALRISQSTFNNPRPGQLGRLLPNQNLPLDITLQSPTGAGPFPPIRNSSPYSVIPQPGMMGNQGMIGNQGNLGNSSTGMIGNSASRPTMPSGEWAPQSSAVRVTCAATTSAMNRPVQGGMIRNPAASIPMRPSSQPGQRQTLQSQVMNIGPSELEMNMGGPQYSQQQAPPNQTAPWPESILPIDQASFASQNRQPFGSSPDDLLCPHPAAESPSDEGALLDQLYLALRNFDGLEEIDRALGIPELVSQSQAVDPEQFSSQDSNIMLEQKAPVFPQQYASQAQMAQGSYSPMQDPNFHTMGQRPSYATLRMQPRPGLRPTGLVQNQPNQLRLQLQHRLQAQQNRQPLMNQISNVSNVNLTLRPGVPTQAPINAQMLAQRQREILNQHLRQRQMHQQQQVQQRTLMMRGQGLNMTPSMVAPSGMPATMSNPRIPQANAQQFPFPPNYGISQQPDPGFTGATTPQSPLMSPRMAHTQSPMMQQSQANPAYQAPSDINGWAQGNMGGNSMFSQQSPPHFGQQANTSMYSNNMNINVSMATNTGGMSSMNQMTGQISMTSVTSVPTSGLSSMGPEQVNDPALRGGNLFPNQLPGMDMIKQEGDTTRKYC

These are yes or no findings as the source states them, for the method shown. Binding seen in cells or lysates may run through a third protein. Some entries that bind do so weakly or less than the wild type.

Common to all, as to assay: co-IP
Test [1] deals with Flag-tagged RTA truncation C544-691 (Kaposi's sarcoma-associated herpesvirus (KSHV)) (UniProt F5HCV3).
Test [2] has as its target Flag-tagged replication and transcription activator (RTA), full length (Kaposi's sarcoma-associated herpesvirus (KSHV)) (UniProt F5HCV3).
Test [3] concerns the target Flag-tagged NCOA2 truncation N624 (human) (UniProt Q15596).
Test [4] has as its target Flag-tagged NCOA2 truncation 624C (human) (UniProt Q15596).

In the case of “HA-tagged NCOA2, full length (from UniProt Q15596 1-1464)”, the binding entry in test [1] and in test [2] was “binds” throughout.
Consider “HA-tagged RTA, full length (from UniProt F5HCV3 1-691)”, for which the binding entry is “binds” in test [3] and “no binding” in test [4].
As for “Myc-tagged NCOA2 (from UniProt Q15596 1-1464)”, in test [2], the binding entry is reported as “binds”.
On the same count and under the same terms, the result for “Myc-tagged NCOA2 truncation 624C (from UniProt Q15596 624-1464) (domain or fragment)” reads “no binding”; that for “Myc-tagged NCOA2 truncation N624 (from UniProt Q15596 1-624) (domain or fragment)”, “binds”.
